Measured values from ChEMBL document CHEMBL4888484, “Replenishing the malaria drug discovery pipeline: Screening and hit evaluation of the MMV Hit Generation Library 1 (HGL1) against asexual blood stage Plasmodium falciparum ,using a nano luciferase reporter read-out” (2022).
Out of some 150,000 compounds screened, about 540 (0.36%) showed an effect of 50% or more. Some of the results follow.

These compounds were tested on Plasmodium falciparum (assay: Primary screen in NF54 nanoGlo assay, in single point, at 2uM, 72h; a lower Z score goes with more inhibition). Settings: timepoint 72 hour.
Assay type: functional, Erythrocyte

| SMILES | % Inhibition [%] | Z score |
| --- | --- | --- |
| C[C@@H]1CN(C(=O)C2CC23CCN(C/C=C/c2ccc(N(C)C)cc2)CC3)C[C@H](C)O1 (stereo not given in full) | -11 | 1.48 |
| CCN1CC2(CCN(Cc3nnc(C)o3)CC2)C[C@@H](c2ccccc2)C1=O | -11 | 1.57 |
| CC(C)c1ncc(C(=O)N2CCC[C@H](C#N)C2)c(=O)[nH]1 | -19 | 2.21 |
| c1ccc([C@@H]2NCC3(CCCC3)c3ccccc32)cc1 | 4 | -0.53 |
| CN(CC1(CO)CCC1)C(=O)c1ccc(-c2ccccn2)cc1 | 28 | -3.07 |
| CC1(C)CCc2nc(CN(CCO)C3CCCC3)sc2C1 | -18 | 1.58 |
| Cc1cc(N2CC[C@H](CN3CCOCC3)C2)nc(C)n1 | 4 | -0.72 |
| Cc1nc2ccc(NC(=O)N3CCCC[C@@H]3Cc3nn[nH]n3)cn2n1 | -6 | 1.18 |
| CS(=O)(=O)Cc1nc(Cc2ccccc2)cs1 | 0 | 0 |
| Cn1nccc1C(=O)N(CC1CCN(C2Cc3ccccc3C2)CC1)C[C@H]1CCCO1 | 4 | -0.57 |
| CCn1c(C(=O)NCCN(C)C2CCCCC2)cc2cc(S(=O)(=O)N(C)C)ccc21 | -13 | 1.8 |
| OC[C@H]1CCN(Cc2cc3c(cc2Cl)OCO3)C[C@@H]1O | -6 | 0.55 |
| CC1(C)[C@@H]2CC[C@@]1(C(=O)NCc1ccc(F)cc1)C(=O)C2 | -1 | 0.18 |
| O=C(N[C@H]1CC(=O)c2ccccc21)c1cnc(CC2CC2)s1 | 11 | -1.36 |
| O=C(O)c1cc(-c2ccc(C(=O)N3CCN4CCC[C@H]4C3)cc2)ccc1O | -10 | 1.5 |
| CCC(=O)Nc1ccc(F)c(NC(=O)NC2(C(N)=O)CCCCCC2)c1 | -4 | 0.56 |
| Cc1cc(CNc2ccc(Br)cc2CO)[nH]n1 | -7 | 1.33 |
| Fc1ccc2c(c1)CC[C@@H]2NCc1cnc(N2CCOCC2)nc1 | -5 | 0.79 |
| CCCNC(=O)N(CC(=O)N1CCc2sccc2C1COc1ccc(C(C)C)cc1)CC1CCCO1 (stereo not given) | -6 | 1.01 |
| CC(C)Oc1ccc(CN2CCCN(S(C)(=O)=O)[C@H]3CCC[C@H]3C(=O)NCC2)cc1 | -6 | 0.95 |
| COc1ccc2c(c1)CC(C)N(C(=O)c1cnns1)C2C (stereo not given) | -8 | 1.06 |
| Cc1sc2cc(C(=O)N3CCN(c4ccccc4F)CC3)[nH]c2c1CN1CCOCC1 | 3 | -0.31 |

| SMILES | % Inhibition [%] | Z score |
| --- | --- | --- |
| COc1ccc(-c2cnoc2-c2ccc(OCc3cccc(Cl)c3)cc2O)cc1OC | -7 | 0.86 |
| O=C(Nc1ccnn1C1CCCC1)c1ccc2cc[nH]c2c1 | -8 | 0.8 |
| COCCN(Cc1ccco1)S(=O)(=O)Cc1cc(C)no1 | -3 | 0.25 |
| CC1CCN(C(=O)c2ccccc2NC(=O)C2CCN(C)CC2)CC1 | -3 | 0.35 |
| COc1ccc(C(=O)N(Cc2cc(NC(=O)CC(C)C)ccc2N(C)C)C[C@H]2CCCO2)cc1 | -7 | 1.38 |
| COc1cccc(CN(C(=O)NC[C@H](C)OC)C2CCCC2)c1OC | -3 | 0.63 |
| Cc1cc(C)nc(N[C@H]2CCCN(C(N)=O)C2)n1 | -6 | 1.23 |
| CC(C)N1CCN(C(=O)c2csc(NC(=O)c3ccc(Cl)c(Cl)c3)n2)CC1 | -2 | 0.47 |
| COC(=O)Cc1cccc(NC(=O)NCc2ccncc2)n1 | 6 | -1.17 |
| CCCCN1C(=O)CC[C@@H]2CN(C(=O)c3ccc(=O)[nH]n3)CC[C@@H]21 | -2 | 0.44 |
| COc1ncccc1NC(=O)N1CCOCC1 | -14 | 1.73 |
| CCn1c(CC2CCN(C(=O)CCc3c[nH]cn3)CC2)nn(C)c1=O | -13 | 1.75 |
| CC(C)n1cc(CN(C)Cc2ccc3c(ccn3C)c2)cn1 | 3 | -0.4 |
| COC[C@@](C)(O)CNC(=O)NC1CCCCC1 | -17 | 2.54 |
| CC(C)NC(=O)Nc1ccc(-c2cn3c(n2)CCCC3)cc1 | -30 | 3.49 |
| Cc1nc2c(s1)CCC[C@@H]2NC(=O)c1cn(C)c(=O)[nH]c1=O | 5 | -0.75 |
| CC(Oc1ccc2c(c1)C(c1ccccc1)N(Cc1ccccc1F)CC2)C(=O)NC1CC1 (stereo not given) | 49 | -5.45 |
| CC(C)c1ccc(C(=O)NC(C)(C)[C@H](O)C(F)(F)F)nc1 | 8 | -0.96 |
| CC(C)C[C@@H]1N[C@H](C(=O)NCCN2CCCC2)Cc2cn(C)c3cccc1c23 | 17 | -1.94 |
| Cc1cccc(NC(=O)c2cccc(S(=O)(=O)NCC3CC3)c2)n1 | 0 | 0.03 |
| COc1ccc(S(=O)(=O)N2CCC3(CC2)N[C@@H](CC(C)C)C(=O)N3CC2CC2)cc1 | -14 | 1.6 |
| C[C@]1(C(=O)Nc2ncccc2O)CCCNC1 | -7 | 0.93 |

| SMILES | % Inhibition [%] | Z score |
| --- | --- | --- |
| CC(C)n1cc(C(=O)N(CC2CC2)C[C@H]2CN(C)CCO2)nn1 | -8 | 1.11 |
| O=C(NCCc1cc(F)c(F)c(F)c1)c1csnn1 | -7 | 0.85 |
| Cc1cc(N2CCC[C@]3(CCC(=O)N(C4CCCC4)C3)C2)ccn1 | 9 | -1.46 |
| Cc1n[nH]c(C)c1CCC(=O)NCCC(=O)Nc1ccccc1 | -9 | 1.36 |
| Cc1cnc([C@@H](C)CNC(=O)Nc2ncnn2C)s1 | -12 | 1.19 |
| CCS(=O)(=O)CCNC1CCCC1c1ccc(F)cc1 (stereo not given) | -1 | 0.1 |
| C=C(C)COc1cccc(NC(=O)N2CC(=O)N(CC3CC3)C2)c1 | -16 | 3.03 |
| CC(C)c1nc(N2CCC(N3CCC[C@H](C(=O)NCc4ccccn4)C3)CC2)no1 | -9 | 1.8 |
| CCOc1cc(C(=O)N(C)[C@H]2CCCN(C)C2)n[nH]1 | -6 | 0.88 |
| CC(C)(C(=O)N1C2CCNCC1CC2)C1CCCC1 (stereo not given) | 13 | -1.94 |
| CCN(C(=O)CCCc1ccccn1)c1ccc(OC)nc1 | 1 | -0.12 |
| O=C(Nc1ccccc1Cl)OCc1cncs1 | 36 | -0.86 |
| CC(C)(NC(=O)c1cccc(C(F)F)c1F)[C@@H]1CCCCO1 | -6 | 0.94 |
| CCc1cc2c(Nc3ccc4c(c3)OCCO4)ncnc2s1 | -26 | 2.36 |
| COc1ccc(F)cc1C(=O)N1CCC[C@H](c2cnn(C)c2)C1 | -13 | 1.69 |
| CCc1ccc(CNC(=O)c2cccc(NC(=O)c3nnc(COC)s3)c2)cc1 | -8 | 0.84 |
| COc1cc(CNCc2ccc(C3OCCO3)cc2)ccc1C | -1 | 0.12 |
| c1ccc(-c2nc3c4ccccc4nc(NCc4ccco4)n3n2)cc1 | -5 | 0.86 |
| COc1ccc(C(=O)NCC(=O)NO[C@@H]2CCCCO2)cc1 | 1 | -0.15 |
| COc1ccc(CN2CC(=O)N(c3cccc(Cl)c3)C3CS(=O)(=O)CC32)cc1 (stereo not given) | -5 | 0.65 |
| O=C(NCc1ccc(F)cc1F)C1CCN(c2nc3nc[nH]c(=O)c3s2)CC1 | -7 | 0.65 |
| Cc1nc(C)c(C)c(N(C)CCC(=O)O)n1 | -33 | 3.89 |

| SMILES | % Inhibition [%] | Z score |
| --- | --- | --- |
| Cc1cc(C)nc(NC2CCCCCC2C(N)=O)n1 (stereo not given) | 4 | -0.58 |
| Cc1ncsc1C(=O)NCC1CN(S(=O)(=O)c2ccccc2)C2CCN1C2 (stereo not given) | -13 | 1.46 |
| CC(C)c1noc([C@@H]2CCCN2S(=O)(=O)CCOc2ccccc2F)n1 | -17 | 3.67 |
| CCc1ncnc(NCCCS(C)(=O)=O)c1F | 5 | -0.72 |
| COc1ccc(CC(=O)Nc2ccc(N3CCN(C(=O)C4c5ccccc5Oc5ccccc54)CC3)cc2)cc1 | 10 | -1.66 |
| Cc1c([C@H](C)NCc2nc3ccccc3n2CCC(C)C)cnn1-c1ccccc1 | -7 | 0.88 |
| O=C(Nc1cc(F)c2nc(N3CCOCC3)ccc2c1)c1ccccc1Cl | -1 | 0.16 |
| O=C(c1coc2ccccc12)N1CCCCCCC1 | -11 | 1.96 |
| CN1CCC(NC(=O)N[C@@H](c2ccccc2)c2ccc(Br)cc2F)CC1 | -26 | 2.61 |
| O=C(C1CC12CCC2)N1CC2CCC2(Nc2ncnc3scnc23)C1 (stereo not given) | -10 | 1.07 |
| CCOCCC(=O)Nc1csc2nc(=O)c(C)nn12 | -5 | 0.73 |
| Cc1cccnc1CC(NC1CCOc2ccccc21)C(F)(F)F (stereo not given) | -5 | 0.64 |
| CC1CCCCC1NC(=O)CON=C(N)CN1C(C)CCCC1C (stereo not given) | -1 | 0.19 |
| CC1CCN(c2cc3c(cc2F)c(=O)c(S(=O)(=O)c2cccc(Cl)c2)cn3Cc2ccccc2)CC1 | -12 | 1.46 |
| COCCn1cc(NC(=O)c2cn3c(n2)C[C@@H](C)CC3)cn1 | -9 | 0.75 |
| Cc1n[nH]c(C2CC2)c1C(=O)N1CCn2nc(CO)cc2C1 | -2 | 0.26 |
| CC[C@H]1CN(C)c2ccccc2CN1C(=O)CCS(=O)(=O)c1ccc2c(c1)CCC2 | 5 | -0.79 |
| Cc1cc(-c2cncc(CN3CCC(C(N)=O)CC3)c2)ccc1F | -2 | 0.18 |
| Cc1ccc(-c2nc3ccc(-c4ccccc4Cl)cn3c2CN2CCN(C(=O)Nc3ccccc3C)CC2)cc1 | -5 | 0.68 |
